The results in this text go back to PubChem BioAssay (NCI).

Molecules are shown by their SMILES. Some structures have more than one record in an assay (separate samples or runs), and their calls can disagree.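 Compound tested at a single concentration for 48 hours in 96-well plates; a percent growth value below 10 was scored as active.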 Certain results were filed several times, with different values. They are shown here; other results are not. An entry can have further records. The screen tested this drug many times, at its own concentration, as given; each value is one run. Additions like (4×) count equal records among those shown.

The test system of one assay is UACC-62 melanoma. In words: NCI-60 one-dose screen, 48 h (100 = growth as untreated, 0 = no growth, -100 = all killed). The following applies: 25 µM.
The subject of another assay is LOX IMVI melanoma. The description is as above. The note with it: 0.25 µM.

Take `COc1cccc2c1C(=O)c1c(O)c3c(c(O)c1C2=O)C[C@@](O)(C(=O)CO)C[C@@H]3OC1CC(N)C(O)C(C)O1` (stereo not given in full): the growth result in the assay on UACC-62 melanoma (runs of 1998) was “inactive: 105% and active: -52.3, -81 (4×), -88.9, -96.8, -99.2, -96 (2×), -91.7 (2×), -85.7, -72.3, -86.6, -93.5, -62.8, -60.8, -86.3, -74.1, -72, -84.8, -95.9, -91.1, -89.4, -87.2, -46.9, -66.9, -66.5, -90.8, -35.1, -41.8, -83.6, -52.2, -61.6, -49.7, -64.3, -70.7, -86.1, -83.1 (3×), -76.4, -90.5, -94.8 (2×), -76.7, -73.8, -80.9, -96.4, -85.4, -92.4, -84.7 (2×), -69.5, -70.6, -82.5, -77.4, -78.4, -81.3, -87, -68.1, -77.2, -83.5, -80.6 (2×), -80, -91.9, -75.4, -89.7, -56.2%”; in the assay on UACC-62 melanoma (runs of 1999), “active: -100 (5×), -74.7, -94.9, -86.1, -84.9, -70.2, -86.5, -79.4, -74.5, -83.9, -79.6, -96.1, -89.6, -89.5, -78.4, -79, -81.5, -83.1, -83.2%”; with UACC-62 melanoma (runs of 2000) it was “active: -100% (2×), -96.4%, -99.1%”; with LOX IMVI melanoma (runs of 2006) it was “inactive: 15.1% and active: 9.7%”; in the assay on LOX IMVI melanoma (runs of 2007), “inactive: 27.9, 19.6, 18.6, 19.9, 21.7, 26.5, 16.3, 19.7, 15.9, 15.6, 34.6, 20.1 (2×), 24.1, 31, 20.5, 23.7 (2×), 14.6, 26.8, 25, 24.6, 10.8, 32.1, 24.5, 23.6, 24.4, 22.4, 25.2, 24.7, 33.4, 24.2 (2×), 30.3, 31.2, 25.5, 25.8, 28.9, 29.3% and active: -22.8%”; in the assay with LOX IMVI melanoma (runs of 2008) it was “inactive: 32.6, 24, 22.7, 28.2, 20.8, 30, 26, 25.2 (2×), 21.7, 29.7, 15.1, 22.1, 28.6, 94, 20.4, 10.4, 10.3, 28.8, 26.6, 23.1, 16.3, 21.9 (2×), 34, 22.6, 13.9, 19.6, 29.3, 18.9% and active: -46, -2.98, -8.98, 2.15, 3.18, -18.2, -8.36, -14.4, -18.3, -17.8, -5.01, 5.15, 1.92, 3.11, -36.6, -23.6, 8.56, 2.62, -6.08, -31.1, -2.15, -4.09, 7.82%”. Also, the growth result with LOX IMVI melanoma (runs of 2009) is “active: 2.19, 8.36, 6.41, 3.7, 7.79, 9.17, 6.06, 9.71, 8.55, 6.51, 0.203, 9.65% and inactive: 24.1, 14.1, 19.2 (2×), 25.2, 24.5, 19.9 (2×), 23.9, 17.6 (2×), 24.9, 21.3, 14.4 (2×), 14.6, 24.2, 17.9, 13.4, 12, 25.1, 17.8, 23.3, 24.7, 27.7, 15.1, 21.4, 19.5, 29.2, 15.6, 12.9 (2×), 21.7, 29.7, 25.3, 11.4, 11.7 (2×), 16.8, 19.6, 11.8 (2×), 12.7 (3×), 12.3 (2×), 10.7, 11.3, 30.7, 22.3, 15.9, 10.2%”; in the assay on LOX IMVI melanoma (runs of 2010), “inactive: 21.1, 11.9, 22.7, 15.3, 20.2 (2×), 17.6, 15.4, 26.5 (2×), 22.9, 13.4, 14.4, 16.3, 19.5, 10.3, 14.3, 10.4, 30.4, 30.2, 21.4, 34.4, 39.7, 32.9, 32.4, 34.1, 25.8, 43.4, 28.4, 36.7, 18.7, 19.8, 12.7, 21.7, 17.9, 21.3, 22.4, 23.6, 27, 18.5, 23.5, 19.4, 18% and active: 9.57%, 9.86%”; in the assay with LOX IMVI melanoma (runs of 2011), “inactive: 25.1 (2×), 25.8, 19.5 (2×), 26.7, 22.7 (3×), 19.9, 20.2, 23.5, 19.6, 25.7, 27.2, 28.2, 27.5, 18.5 (2×), 29, 24.1, 31.4 (2×), 26.4, 21.3, 32, 21.7, 30.3, 20.5 (2×), 27.4, 15, 18.7 (2×), 19.1, 10.7, 17.9, 16, 18.8, 13.3, 12.9, 22.5 (2×), 14.3, 12.1, 22.6, 19.4, 25.6, 33.9, 18.6, 15.1, 21.1, 16.8% and active: 9.04%”; in the assay with LOX IMVI melanoma (runs of 2012) it was “inactive: 19.8, 11.7, 10.2, 20.6, 19.1, 20 (2×), 19.6, 27 (3×), 29.8, 15.3, 13.9, 15.7, 10.9, 11.4, 12.6, 13.6, 20.9, 17.7 (2×), 22.3, 22.7, 19.5, 19.4, 15.6, 32, 25.3, 38, 24.4 (2×), 25.2, 29.2, 23.5, 25, 36.2, 30.4, 28.2 (2×), 30.2 (3×), 25.9, 25.5, 27.3, 13, 14.4, 11.9, 16.4, 20.4, 14.1, 21.4, 19.3% and active: 7.05, 9.57, 5.89, 9.5, 7.21, 8.72, 9.91, -23.5%”; in the assay on LOX IMVI melanoma (runs of 2013) it was “inactive: 16.4 (2×), 14.4, 22.6, 24.5 (2×), 14.3, 30.1, 23.2, 23.5, 18.6, 30.4, 24.4, 31.4, 22.9 (2×), 19.9, 28.8, 22.8, 22.5, 25.3, 22.4, 34.6, 23.6, 15.8, 14.6, 22.1, 20.8, 24.1, 19.7, 23, 19.6 (2×), 25.2, 29, 23.7, 25.1, 26.7, 34.9, 39.3, 24.7, 30.7, 27.3, 26.5, 21.7, 20, 33.9, 11, 17.9, 20.9, 16, 14.1 (2×), 22.3, 15.4, 14.7, 11.6, 21.1%”; in the assay on LOX IMVI melanoma (runs of 2014), “inactive: 14.6 (2×), 23.2, 20.6, 16.7, 15.8, 18.8, 15 (2×), 21.9 (3×), 17.8, 11.9 (2×), 31, 15.4 (2×), 11.6 (3×), 18.3, 25.4, 13.9, 22.6, 25.3, 15.7, 11.8, 13.2, 11.1, 11, 19.9, 18.7, 16.2, 12.5, 19.2, 15.3, 12 (2×), 10.4, 18.6 (2×), 19.3 (2×), 11.5, 13.4 (2×), 10.1, 17.7, 10.9 (3×), 22.8, 13.6, 15.6, 16.4, 10.5, 19.7, 19.5, 13, 11.4, 23.1, 17.9, 14.4% and active: 8.08, 6.37, 7.3, 7.84, 9.54, 9.6, 3.92, 5.71, 7.6, 8.88, 7.79%”. For the same compound, the growth result in the assay with LOX IMVI melanoma (runs of 2015) is “inactive: 17.6, 13.3 (3×), 20 (2×), 21.9 (2×), 18, 14.1 (2×), 16.2 (3×), 12, 17.1, 10.8, 11.7, 16.8 (2×), 11, 15.8, 12.3, 22.7, 18.7 (2×), 11.3, 15.2 (2×), 20.8, 12.2, 27, 15.3, 13 (2×), 29.1, 13.2, 11.6, 13.7, 19, 16.7 (2×), 25.1, 12.7 (2×), 14.4, 33.6, 11.8, 23.1, 14.7, 28.6, 23.2 (3×), 27.4, 19.8, 31.9, 30.2, 15.6, 17.7, 15.1, 18.5, 18.8, 22.4, 23.6, 19.3, 19.7, 22.1% and active: 2.63, 7.19, 1.1, 8.24, 6.96, 9.97, 6.94, 8.51, 8.68%”; in the assay with LOX IMVI melanoma (runs of 2016) it was “inactive: 21.3 (2×), 20.6, 23.5 (2×), 27.1 (3×), 26.4, 36.3, 15.1 (2×), 18.6, 22.8 (2×), 25.7, 12, 15.9, 22.9, 28.1, 11.1, 11.9, 15.7, 16.4, 13.2, 11.3, 13.7, 11.2, 11.8, 15 (2×), 18.7 (2×), 20 (2×), 10.8, 15.4, 10.7, 25, 25.2, 35, 26.9, 32.7, 22.7, 29.2 (2×), 31.2, 29.4, 26.7, 26.6, 24.4, 24.8 (2×), 27.2, 20.4, 20.1, 21.1, 28.2, 24.5, 24.3, 18, 23.6 (2×), 22.6, 29.5, 22.3 (2×), 17.8, 22.1, 23.3, 23.9, 24.6, 25.1, 19.6, 17.1, 22% and active: 4.51%, 9.87%, 5.87%”; in the assay with LOX IMVI melanoma (runs of 2017), “inactive: 20.6 (2×), 22.1 (3×), 22.5, 21.4 (2×), 16.2 (2×), 15.2, 15, 16.6, 15.8, 15.3 (2×), 19.3 (2×), 12.6, 12.7, 18.7, 18.8 (2×), 15.4 (3×), 18.5 (3×), 18.1, 25.8, 29.2, 22.4 (2×), 23.6, 12.1, 17.9, 32.9, 41.8, 11.5, 16.8, 15.7 (2×), 18, 23.2 (2×), 17.8 (2×), 13.3, 18.3, 17.6, 15.9, 14.6, 18.9, 21.9, 12, 12.2, 13.4, 11.3, 19.1, 22.7, 20.2, 19.8, 24.4, 23.3, 25.3, 28.3, 27.1, 25.2, 19.6% and active: 9.77%, 9.33%, 7.62%”.
